Experimental data from the supplement of paper PMC8728848.
This is one part of the list.

Assays:
Assay in all cases: glycan array binding signal (z-score within array); higher = stronger binding
Settings in all cases: glycan notation: IUPAC condensed, linker removed
[1] = target: Neu5Ac(a2-3)Gal(b1-3)]Neu5Ac(a2-3)Gal(b1-4)]GlcNAc
How it was run: (§1)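 The binding signal is a Z-score computed within each array. Data were drawn from 3228 arrays in the Consortium for Functional Glycomics database, restricted to those with a known protein sequence. Scores were averaged over arrays of the same protein sequence at different concentrations or buffers, and over linkers, and negative values can be taken as non-binding.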

[2] = target: Neu5Ac(a2-3)Gal(b1-4)Glc
How it was run: as §1

[3] = target: Neu5Ac(a2-3)Gal(b1-4)GlcNAc
How it was run: as §1

[4] = target: Neu5Ac(a2-3)Gal(b1-4)GlcNAc(b1-2)Man
How it was run: as §1

[5] = target: Neu5Ac(a2-3)Gal(b1-4)GlcNAc(b1-2)Man(a1-3)[GlcNAc(b1-4)][Neu5Ac(a2-3)Gal(b1-4)GlcNAc(b1-2)Man(a1-6)]Man(b1-4)GlcNAc(b1-4)GlcNAc
How it was run: as §1

[6] = target: Neu5Ac(a2-3)Gal(b1-4)GlcNAc(b1-2)Man(a1-3)[Neu5Ac(a2-3)Gal(b1-4)GlcNAc(b1-2)Man(a1-6)]Man(b1-4)GlcNAc(b1-4)GlcNAc
How it was run: as §1

[7] = target: Neu5Ac(a2-3)Gal(b1-4)GlcNAc(b1-2)Man(a1-3)[Neu5Ac(a2-3)Gal(b1-4)GlcNAc(b1-2)Man(a1-6)]Man(b1-4)GlcNAc(b1-4)[Fuc(a1-6)]GlcNAc
How it was run: as §1

[8] = target: Neu5Ac(a2-3)Gal(b1-4)GlcNAc(b1-2)Man(a1-3)[Neu5Ac(a2-6)Gal(b1-4)GlcNAc(b1-2)Man(a1-6)]Man(b1-4)GlcNAc(b1-4)GlcNAc
How it was run: as §1

[9] = target: Neu5Ac(a2-3)Gal(b1-4)GlcNAc(b1-2)[Neu5Ac(a2-3)Gal(b1-4)GlcNAc(b1-4)]Man(a1-3)[GlcNAc(b1-4)][Neu5Ac(a2-3)Gal(b1-4)GlcNAc(b1-2)[Neu5Ac(a2-3)Gal(b1-4)GlcNAc(b1-6)]Man(a1-6)]Man(b1-4)GlcNAc(b1-4)GlcNAc
How it was run: as §1

[10] = target: Neu5Ac(a2-3)Gal(b1-4)GlcNAc(b1-2)[Neu5Ac(a2-3)Gal(b1-4)GlcNAc(b1-4)]Man(a1-3)[GlcNAc(b1-4)][Neu5Ac(a2-3)Gal(b1-4)GlcNAc(b1-4)Man(a1-6)]Man(b1-4)GlcNAc(b1-4)GlcNAc
How it was run: as §1

[11] = target: Neu5Ac(a2-3)Gal(b1-4)GlcNAc(b1-2)[Neu5Ac(a2-3)Gal(b1-4)GlcNAc(b1-6)]Man(a1-6)[Neu5Ac(a2-3)Gal(b1-4)GlcNAc(b1-2)Man(a1-3)][GlcNAc(b1-4)]Man(b1-4)GlcNAc(b1-4)GlcNAc
How it was run: as §1

[12] = target: Neu5Ac(a2-3)Gal(b1-4)GlcNAc(b1-3)Gal
How it was run: as §1

[13] = target: Neu5Ac(a2-3)Gal(b1-4)GlcNAc(b1-3)Gal(b1-3)GlcNAc
How it was run: as §1

[14] = target: Neu5Ac(a2-3)Gal(b1-4)GlcNAc(b1-3)Gal(b1-4)GlcNAc
How it was run: as §1

[15] = target: Neu5Ac(a2-3)Gal(b1-4)GlcNAc(b1-3)Gal(b1-4)GlcNAc(b1-2)Man(a1-3)[Neu5Ac(a2-3)Gal(b1-4)GlcNAc(b1-3)Gal(b1-4)GlcNAc(b1-2)Man(a1-6)]Man(b1-4)GlcNAc(b1-4)GlcNAc
How it was run: as §1

[16] = target: Neu5Ac(a2-3)Gal(b1-4)GlcNAc(b1-3)Gal(b1-4)GlcNAc(b1-3)Gal(b1-4)GlcNAc
How it was run: as §1

[17] = target: Neu5Ac(a2-3)Gal(b1-4)GlcNAc(b1-3)Gal(b1-4)GlcNAc(b1-3)Gal(b1-4)GlcNAc(b1-2)Man(a1-3)[Neu5Ac(a2-3)Gal(b1-4)GlcNAc(b1-3)Gal(b1-4)GlcNAc(b1-3)Gal(b1-4)GlcNAc(b1-2)Man(a1-6)]GalNAc
How it was run: as §1

[18] = target: Neu5Ac(a2-3)Gal(b1-4)GlcNAc(b1-3)Gal(b1-4)GlcNAc(b1-3)GalNAc
How it was run: as §1

[19] = target: Neu5Ac(a2-3)Gal(b1-4)GlcNAc(b1-3)Gal(b1-4)GlcNAc(b1-3)[Neu5Ac(a2-3)Gal(b1-4)GlcNAc(b1-3)Gal(b1-4)GlcNAc(b1-6)]GalNAc
How it was run: as §1

[20] = target: Neu5Ac(a2-3)Gal(b1-4)GlcNAc(b1-3)Gal(b1-4)GlcNAc(b1-6)[Gal(b1-3)]GalNAc
How it was run: as §1

[21] = target: Neu5Ac(a2-3)Gal(b1-4)GlcNAc(b1-3)Gal(b1-4)[Fuc(a1-3)]GlcNAc
How it was run: as §1

[22] = target: Neu5Ac(a2-3)Gal(b1-4)GlcNAc(b1-3)GalNAc
How it was run: as §1

[23] = target: Neu5Ac(a2-3)Gal(b1-4)GlcNAc(b1-3)[Neu5Ac(a2-3)Gal(b1-4)GlcNAc(b1-6)]GalNAc
How it was run: as §1

[24] = target: Neu5Ac(a2-3)Gal(b1-4)GlcNAc(b1-6)GalNAc
How it was run: as §1

[25] = target: Neu5Ac(a2-3)Gal(b1-4)GlcNAc(b1-6)[Gal(b1-3)]GalNAc
How it was run: as §1

[26] = target: Neu5Ac(a2-3)Gal(b1-4)GlcNAc(b1-6)[Neu5Ac(a2-3)Gal(b1-3)]GalNAc
How it was run: as §1

[27] = target: Neu5Ac(a2-3)Gal(b1-4)GlcNAc6S
How it was run: as §1

[28] = target: Neu5Ac(a2-3)Gal(b1-4)[Fuc(a1-3)]GlcNAc
How it was run: as §1

[29] = target: Neu5Ac(a2-3)Gal(b1-4)[Fuc(a1-3)]GlcNAc(b1-2)Man
How it was run: as §1

[30] = target: Neu5Ac(a2-3)Gal(b1-4)[Fuc(a1-3)]GlcNAc(b1-3)Gal
How it was run: as §1

[31] = target: Neu5Ac(a2-3)Gal(b1-4)[Fuc(a1-3)]GlcNAc(b1-3)Gal(b1-4)GlcNAc
How it was run: as §1

[32] = target: Neu5Ac(a2-3)Gal(b1-4)[Fuc(a1-3)]GlcNAc(b1-3)Gal(b1-4)[Fuc(a1-3)]GlcNAc(b1-3)Gal(b1-4)[Fuc(a1-3)]GlcNAc
How it was run: as §1

[33] = target: Neu5Ac(a2-3)Gal(b1-4)[Fuc(a1-3)]GlcNAc(b1-3)GalNAc
How it was run: as §1

[34] = target: Neu5Ac(a2-3)Gal(b1-4)[Fuc(a1-3)]GlcNAc(b1-6)[Gal(b1-3)]GalNAc
How it was run: as §1

[35] = target: Neu5Ac(a2-3)Gal(b1-4)[Fuc(a1-3)]GlcNAc(b1-6)[Neu5Ac(a2-3)Gal(b1-3)]GalNAc
How it was run: as §1

[36] = target: Neu5Ac(a2-3)Gal(b1-4)[Fuc(a1-3)]GlcNAc6S
How it was run: as §1

[37] = target: Neu5Ac(a2-3)Gal6S(b1-4)GlcNAc
How it was run: as §1

[38] = target: Neu5Ac(a2-3)Gal6S(b1-4)[Fuc(a1-3)]GlcNAc
How it was run: as §1

B1: LecRKVI.2 (protein)
chain: RTTTNFAFRGFNGNQSKIRIEGAAMIKPDGLLRLTDRKSNVTGTAFYHKPVRLLNRNSTNVTIRSFSTSFVFVIIPSSSSNKGFGFTFTLSPTPYRLNAGSAQYLGVFNKENNGDPRNHVFAVEFDTVQGSRDDNTDRIGNDIGLNYNSRTSDLQEPVVYYNNDDHNKKEDFQLESGNPIQALLEYDGATQMLNVTVYPARLGFKPTKPLISQHVPKLLEIVQEEMYVGFTASTGKGQSSAHYVMGWSFSSGGERPIADVLILSELPPPPPNKAKKEGLNS
- glycan array binding signal (z-score) [1]: -0.434
- glycan array binding signal (z-score) [2]: 1.51
- glycan array binding signal (z-score) [3]: -0.302
- glycan array binding signal (z-score) [4]: -0.25
- glycan array binding signal (z-score) [5]: -0.302
- glycan array binding signal (z-score) [6]: -0.323
- glycan array binding signal (z-score) [7]: -0.283
- glycan array binding signal (z-score) [8]: -0.129
- glycan array binding signal (z-score) [9]: -0.364
- glycan array binding signal (z-score) [10]: -0.333
- glycan array binding signal (z-score) [11]: -0.352
- glycan array binding signal (z-score) [12]: -0.323
- glycan array binding signal (z-score) [13]: -0.465
- glycan array binding signal (z-score) [14]: -0.162
- glycan array binding signal (z-score) [15]: -0.177
- glycan array binding signal (z-score) [16]: -0.204
- glycan array binding signal (z-score) [17]: 0.958
- glycan array binding signal (z-score) [18]: -0.271
- glycan array binding signal (z-score) [19]: -0.261
- glycan array binding signal (z-score) [20]: -0.37
- glycan array binding signal (z-score) [21]: -0.362
- glycan array binding signal (z-score) [22]: -0.282
- glycan array binding signal (z-score) [23]: -0.323
- glycan array binding signal (z-score) [24]: -0.273
- glycan array binding signal (z-score) [25]: -0.215
- glycan array binding signal (z-score) [26]: -0.41
- glycan array binding signal (z-score) [27]: -0.385
- glycan array binding signal (z-score) [28]: -0.408
- glycan array binding signal (z-score) [29]: -0.35
- glycan array binding signal (z-score) [30]: -0.392
- glycan array binding signal (z-score) [31]: -0.238
- glycan array binding signal (z-score) [32]: -0.44
- glycan array binding signal (z-score) [33]: -0.276
- glycan array binding signal (z-score) [34]: 3.09
- glycan array binding signal (z-score) [35]: 0.077
- glycan array binding signal (z-score) [36]: -0.283
- glycan array binding signal (z-score) [37]: -0.401
- glycan array binding signal (z-score) [38]: -0.46
